Some of the results follow. Rule as the data show it: active = 3.2 or more and inactive = the rest. Only a few entries rise above the background.
Target: SHP2 C-SH2 domain E139D
Assay: enrichment score (SH2-bound / input frequency) (ratio); bacterial display of known human phosphotyrosine sites (pTyr-Var adds point mutants) read by sequencing; higher = stronger binding; tyrosines were phosphorylated by kinases first
Details: peptide library: pTyr-Var
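Also: displayed peptides selected on beads carrying the immobilized SH2 domain, with library peptides lacking any tyrosine serving as negative controls.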

Enrichment score, inactive:
IPQEEYTATGL [TTN_Y20178] 0.814, WAKPEYTGGFK [TTN_Y22309] 0.869, VHVEVYDPPSP [TTN_Y16422_R16424P] 0.951, IRNRDYDDIDD [TTYH2_Y424_T419I] 0.357, LANNEYYFRVC [TTN_Y18997] 0.687, TNLVPYPCIHF [TUBA1A_Y262_R264C] 1.38, LTTPTYGDLNH [TUBB_Y222] 0.429, EKGEEYGGGGG [TUBA1A_Y451_E447K] 0.341, KFDLMYAKCAF [TUBA1A_Y399_R402C] 0.662, IETGKYEILTE [TTN_Y13435_R13434K] 0.69, DSEIRYLSADS [TTF1_Y476] 0.518, STKELYEKFMI [TTN_Y32175_YF] 1.07, GRDQPYSGAGD [TYRO3_Y828] 0.499, KPGVNYYFQVS [TTN_Y28165_R28168Q] 1.11, KACNPYKPPGP [TTN_Y25826_T25821K] 0.925, LHAALYERKLL [TTLL5_Y542] 0.947, TENAGYYFQVS [TTN_Y31721_R31724Q] 0.744, TNLVPYPRIHF [TUBA1A_Y262] 1.05, HLVSEYQQYQD [TUBB3_Y422_D417H] 1.14

Target: SHP2 C-SH2 domain wild-type
Assay: as above
Details: peptide library: pTyr-Var

Enrichment score, inactive:
IPQEEYTATGL [TTN_Y20178] 0.675, WAKPEYTGGFK [TTN_Y22309] 1.16, VHVEVYDPPSP [TTN_Y16422_R16424P] 1.03, IRNRDYDDIDD [TTYH2_Y424_T419I] 0.4, LANNEYYFRVC [TTN_Y18997] 1.07, TNLVPYPCIHF [TUBA1A_Y262_R264C] 1.45, LTTPTYGDLNH [TUBB_Y222] 1.33, EKGEEYGGGGG [TUBA1A_Y451_E447K] 0.433, KFDLMYAKCAF [TUBA1A_Y399_R402C] 0.826, IETGKYEILTE [TTN_Y13435_R13434K] 0.681, DSEIRYLSADS [TTF1_Y476] 0.538, STKELYEKFMI [TTN_Y32175_YF] 1.02, GRDQPYSGAGD [TYRO3_Y828] 0.516, KPGVNYYFQVS [TTN_Y28165_R28168Q] 1.43, KACNPYKPPGP [TTN_Y25826_T25821K] 0.845, LHAALYERKLL [TTLL5_Y542] 0.675, TENAGYYFQVS [TTN_Y31721_R31724Q] 0.996, TNLVPYPRIHF [TUBA1A_Y262] 0.932, HLVSEYQQYQD [TUBB3_Y422_D417H] 1.22

Target: SHP2 N-SH2 domain L43F
Assay: as above
Details: peptide library: pTyr-Var

Enrichment score, inactive:
IPQEEYTATGL [TTN_Y20178] 0.697, WAKPEYTGGFK [TTN_Y22309] 0.925, VHVEVYDPPSP [TTN_Y16422_R16424P] 1.05, IRNRDYDDIDD [TTYH2_Y424_T419I] 0.327, LANNEYYFRVC [TTN_Y18997] 0.752, TNLVPYPCIHF [TUBA1A_Y262_R264C] 1.41, LTTPTYGDLNH [TUBB_Y222] 0.888, EKGEEYGGGGG [TUBA1A_Y451_E447K] 0.431, KFDLMYAKCAF [TUBA1A_Y399_R402C] 0.904, IETGKYEILTE [TTN_Y13435_R13434K] 0.632, DSEIRYLSADS [TTF1_Y476] 0.684, STKELYEKFMI [TTN_Y32175_YF] 1.23, GRDQPYSGAGD [TYRO3_Y828] 0.494, KPGVNYYFQVS [TTN_Y28165_R28168Q] 1.1, KACNPYKPPGP [TTN_Y25826_T25821K] 0.822, LHAALYERKLL [TTLL5_Y542] 0.88, TENAGYYFQVS [TTN_Y31721_R31724Q] 0.616, TNLVPYPRIHF [TUBA1A_Y262] 1.19, HLVSEYQQYQD [TUBB3_Y422_D417H] 0.742

Target: SHP2 N-SH2 domain T42A
Assay: as above
Details: peptide library: pTyr-Var

Enrichment score, inactive:
IPQEEYTATGL [TTN_Y20178] 0.723, WAKPEYTGGFK [TTN_Y22309] 0.97, VHVEVYDPPSP [TTN_Y16422_R16424P] 0.909, IRNRDYDDIDD [TTYH2_Y424_T419I] 0.283, LANNEYYFRVC [TTN_Y18997] 0.633, TNLVPYPCIHF [TUBA1A_Y262_R264C] 1.36, LTTPTYGDLNH [TUBB_Y222] 0.644, EKGEEYGGGGG [TUBA1A_Y451_E447K] 0.363, KFDLMYAKCAF [TUBA1A_Y399_R402C] 1.03, IETGKYEILTE [TTN_Y13435_R13434K] 0.768, DSEIRYLSADS [TTF1_Y476] 0.585, STKELYEKFMI [TTN_Y32175_YF] 0.923, GRDQPYSGAGD [TYRO3_Y828] 0.365, KPGVNYYFQVS [TTN_Y28165_R28168Q] 0.986, KACNPYKPPGP [TTN_Y25826_T25821K] 0.707, LHAALYERKLL [TTLL5_Y542] 0.98, TENAGYYFQVS [TTN_Y31721_R31724Q] 0.963, TNLVPYPRIHF [TUBA1A_Y262] 0.884, HLVSEYQQYQD [TUBB3_Y422_D417H] 0.915

Target: SHP2 N-SH2 domain T52S
Assay: as above
Details: peptide library: pTyr-Var

Enrichment score, inactive:
IPQEEYTATGL [TTN_Y20178] 0.936, WAKPEYTGGFK [TTN_Y22309] 1.23, VHVEVYDPPSP [TTN_Y16422_R16424P] 1.39, IRNRDYDDIDD [TTYH2_Y424_T419I] 0.363, LANNEYYFRVC [TTN_Y18997] 0.638, TNLVPYPCIHF [TUBA1A_Y262_R264C] 1.11, LTTPTYGDLNH [TUBB_Y222] 0.985, EKGEEYGGGGG [TUBA1A_Y451_E447K] 0.496, KFDLMYAKCAF [TUBA1A_Y399_R402C] 0.993, IETGKYEILTE [TTN_Y13435_R13434K] 0.601, DSEIRYLSADS [TTF1_Y476] 0.547, STKELYEKFMI [TTN_Y32175_YF] 1.09, GRDQPYSGAGD [TYRO3_Y828] 0.43, KPGVNYYFQVS [TTN_Y28165_R28168Q] 1.14, KACNPYKPPGP [TTN_Y25826_T25821K] 0.718, LHAALYERKLL [TTLL5_Y542] 1, TENAGYYFQVS [TTN_Y31721_R31724Q] 0.761, TNLVPYPRIHF [TUBA1A_Y262] 1.01, HLVSEYQQYQD [TUBB3_Y422_D417H] 0.857

Target: SHP2 N-SH2 domain wild-type
Assay: as above
Details: peptide library: pTyr-Var

Enrichment score, inactive:
IPQEEYTATGL [TTN_Y20178] 0.879, WAKPEYTGGFK [TTN_Y22309] 1.26, VHVEVYDPPSP [TTN_Y16422_R16424P] 1.1, IRNRDYDDIDD [TTYH2_Y424_T419I] 0.366, LANNEYYFRVC [TTN_Y18997] 1.26, TNLVPYPCIHF [TUBA1A_Y262_R264C] 1.59, LTTPTYGDLNH [TUBB_Y222] 1.24, EKGEEYGGGGG [TUBA1A_Y451_E447K] 0.462, KFDLMYAKCAF [TUBA1A_Y399_R402C] 1.21, IETGKYEILTE [TTN_Y13435_R13434K] 0.932, DSEIRYLSADS [TTF1_Y476] 0.593, STKELYEKFMI [TTN_Y32175_YF] 1.09, GRDQPYSGAGD [TYRO3_Y828] 0.602, KPGVNYYFQVS [TTN_Y28165_R28168Q] 1.04, KACNPYKPPGP [TTN_Y25826_T25821K] 0.926, LHAALYERKLL [TTLL5_Y542] 1.17, TENAGYYFQVS [TTN_Y31721_R31724Q] 1.17, TNLVPYPRIHF [TUBA1A_Y262] 1.09, HLVSEYQQYQD [TUBB3_Y422_D417H] 1.08

From the supplement of paper PMC10369915
